In the supplement of paper PMC9334596:
“And” between values parts separate entries of the source, which are not always exact repeats. Equal entries are not always repeated. Whole data set: some 5,300 compounds, median “PER2::LUC luminescence relative to vehicle control” near 0.96, cut for the highest 2% near 1.3. The list shows a part of the results.

Test system: mPer2Luc MEF
Assay: PER2::LUC luminescence relative to vehicle control (fold of vehicle); higher = higher PER2::LUC reporter signal
Details: 10 µM
Method in brief: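 The value is PER2::LUC luminescence expressed as fold of vehicle control. Mouse embryonic fibroblasts carrying the mPer2Luc reporter were seeded at ~3000 cells per well in 384-well plates and grown in DMEM with 10% FBS at 37 °C and 5% CO2. Compounds from commercial libraries were added at 10 μM 48 h after seeding, and luminescence was read with the ONE-Glo luciferase assay system 24 h and 30 h after treatment, followed by an alamarBlue viability assay.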

Row | Structure (SMILES) | PER2::LUC luminescence (time after treatment 24 h) | PER2::LUC luminescence (time after treatment 30 h)
1 | O=c1cccc2ccc(O)c(O)c2c1O | 0.987 | 0.83
2 | O=c1[nH]c(=O)n([C@H]2C[C@H](O)[C@@H](CO)O2)cc1I | 1.08 and 1.11 | 0.942 and 1.28
3 | CN1CCN(c2ccc3nc(-c4c(N)c5c(F)cccc5[nH]c4=O)[nH]c3c2)CC1 | 0.747 | 0.378
4 | Cc1cccc(-c2nn3c(c2-c2ccnc4ccc(C(N)=O)cc24)CCC3)n1 | 0.938 and 0.81 | 1.09 and 0.728
5 | Nc1ccc(S(=O)(=O)O)cc1.Nc1ccc(S(=O)(=O)O)cc1.[Zn] | 0.883 | 0.861
6 | C#C[C@]1(O)CC[C@H]2[C@@H]3CCC4=Cc5oncc5C[C@]4(C)[C@H]3CC[C@@]21C | 0.977 | 0.87
7 | CC(C)c1nc(CN(C)C(=O)N[C@@H](CCN2CCOCC2)C(=O)N[C@H](CC[C@H](Cc2ccccc2)NC(=O)OCc2cncs2)Cc2ccccc2)cs1 | 0.564 | 0.836
8 | CCOc1ccc(Cc2nccc3cc(OCC)c(OCC)cc23)cc1OCC | 0.359 | 0.405
9 | Cc1cc(C)nc(NS(=O)(=O)c2ccc(NC(=S)NC(=O)COc3ccc(Br)cc3Cl)cc2)n1 | 1.01 | 1.06
10 | O=C(Nc1cccnc1)N1CCC(Cc2cccc(Oc3ccc(C(F)(F)F)cn3)c2)CC1 | 0.968 | 0.952
11 | O=C(Nc1ccc([N+](=O)[O-])cc1Cl)c1cc(Cl)ccc1O | 0.716 | 0.699
12 | CC(C)=CCc1c(O)cc2oc(C)cc(=O)c2c1O | 1.05 | 1.12
13 | CCOC(=O)C1=Cc2ccc(C(F)(F)C(F)(F)F)cc2N=C(N)C1 | 1.07 | 1.05
14 | Cc1[nH]c(/C=C2\C(=O)Nc3ccc(F)cc32)c(C)c1C(=O)NCCN1CCCC1 | 0.753 | 0.817
15 | CCc1c(C(=O)NNC(=O)C(O)c2cc(F)cc(F)c2)ccc(O)c1C (centres undefined) | 0.99 | 0.823
16 | N[C@@H](Cc1cc(I)c(O)c(I)c1)C(=O)O | 1.01 | 0.972
17 | CN1C(C(=O)Nc2ccccn2)=C(O)c2sc(Cl)cc2S1(=O)=O | 0.776 | 0.823
18 | CC12CC3CC(C)(C1)CC(N)(C3)C2 | 0.813 | 0.886
19 | O=C(O)c1ccc(C=C2SC(=S)N(c3cccc(C(F)(F)F)c3)C2=O)cc1 | 1.11 and 1.07 | 1.01
20 | COc1ccc(-c2cc(=O)c3c(OC)c(OC)c(OC)c(OC)c3o2)cc1 | 0.944 | 1.03
21 | COc1ccc(SCCc2ccncc2)cc1 | 0.951 | 1.05

Row | Structure (SMILES) | PER2::LUC luminescence (time after treatment 24 h) | PER2::LUC luminescence (time after treatment 30 h)
22 | CC/C=C\C/C=C\C/C=C\C/C=C\C/C=C\C/C=C\CCC(=O)O | 1.04 and 1.08 | 1.07 and 0.954 and 0.736
23 | CCCCC(CC)COc1ccc(-c2nc(-c3ccc(OC)cc3)nc(-c3ccc(OCC(CC)CCCC)cc3O)n2)c(O)c1 (centres undefined) | 0.976 | 0.901
24 | Cn1cc(-c2ccc3nnc(Sc4ccc5nn(C)cc5c4)n3n2)cn1 | 0.782 | 0.785
25 | CO[C@H]1C[C@@H]2CC[C@@H](C)[C@@](O)(O2)C(=O)C(=O)N2CCCC[C@H]2C(=O)O[C@H]([C@H](C)C[C@@H]2CC[C@@H](OC(=O)C(C)(CO)CO)[C@H](OC)C2)CC(=O)[C@H](C)/C=C(\C)[C@@H](O)[C@@H](OC)C(=O)[C@H](C)C[C@H](C)/C=C/C=C/C=C/1C | 0.336 | 0.524
26 | CN1CCCN=C1/C=C/c1cccs1 | 1.2 and 1.03 | 0.92 and 1.16
27 | O=C1N=c2ccccc2=C1c1c(O)[nH]c2ccccc12 | 0.942 | 0.677
28 | CCC[C@@H]1C[C@@H](C(=O)N[C@@H]([C@H]2O[C@H](SC)[C@H](O)[C@@H](O)[C@H]2O)[C@@H](C)O)N(C)C1 | 0.932 and 0.965 | 0.909 and 0.803
29 | N#Cc1c(Oc2ccc(F)c(NC(=O)Cc3cccc(C(F)(F)F)c3)c2)ccc2nc(NC(=O)C3CC3)sc12 | 0.51 | 0.454
30 | C=C1C(N)CC2CC1C2(C)C (centres undefined) | 0.931 | 0.893
31 | O=c1cc[nH]c(=O)[nH]1 | 1.08 | 0.99
32 | O=C(NCc1ccc(S(=O)(=O)c2cc(F)cc(F)c2)cc1)c1ccc2nccn2c1 | 0.94 | 0.696
33 | COc1ccc(-c2cc(=O)c3c(OC)c(OC)c(OC)c(OC)c3o2)cc1OC | 0.626 | 0.784
34 | NC(=O)C(c1ccccc1)(c1ccc(F)cc1)c1ccc(F)cc1 | 0.996 | 0.95
35 | Cc1ccc(C(=O)Nc2cccc(C(F)(F)F)c2)cc1Nc1nc(-c2cccnc2)nc2c1cnn2C | 0.533 | 0.417
36 | CCOC(=O)N1c2ccc(C(F)(F)F)cc2[C@@H](N(Cc2cc(C(F)(F)F)cc(C(F)(F)F)c2)C(=O)OC)C[C@H]1CC | 1.07 and 1.28 | 1.06 and 1.09
37 | Cc1noc(-c2ccc(CSCCC(=O)O)cc2)c1NC(=O)OC(C)c1ccccc1Cl (centres undefined) | 0.665 | 0.728
38 | Cc1cc2nc3c(=O)[nH]c(=O)nc-3n(C[C@H](O)[C@H](O)[C@H](O)COP(=O)(O)O)c2cc1C | 1.22 | 0.887
39 | Cc1cc(Nc2ncnc3ccc(NC4=NC(C)(C)CO4)cc23)ccc1Oc1ccn2ncnc2c1 | 0.923 | 0.826
40 | CCN(CC)CCNC(=O)c1cc(Br)c(N)cc1OC | 1.07 | 0.932
41 | CCc1ccc(/C=C2/SC(=S)NC2=O)cc1 | 1.05 | 1.19
42 | Cc1ccc(Nc2nccc(N(C)c3ccc4c(C)n(C)nc4c3)n2)cc1S(N)(=O)=O | 0.654 | 0.738

Row | Structure (SMILES) | PER2::LUC luminescence (time after treatment 24 h) | PER2::LUC luminescence (time after treatment 30 h)
43 | Cc1c(Cl)c(C)[n+]([O-])c(Cl)c1-c1noc(-c2cc(O)c(O)c([N+](=O)[O-])c2)n1 | 1 | 0.942
44 | CC(=O)[C@H]1[C@H](C#N)C[C@H]2[C@@H]3CC=C4C[C@@H](O)CC[C@]4(C)[C@H]3CC[C@@]21C | 0.924 | 0.94
45 | COc1cc(Nc2ncc3c(n2)-c2ccc(Cl)cc2C(c2c(F)cccc2OC)=NC3)ccc1C(=O)O | 0.902 and 0.778 | 0.925 and 0.814
46 | OC(CCN1CCCCC1)(c1ccccc1)c1ccccc1 | 0.877 and 0.826 | 0.821 and 0.742
47 | C[C@H]1C(=O)CC[C@@H]2[C@]1(C)CC[C@H]1[C@@]2(C)CC[C@@]2(C)[C@@H]3CC(C)(C)CC[C@]3(C)CC[C@]12C | 0.971 | 0.998
48 | CCCCC(=O)N(Cc1ccc(-c2ccccc2-c2nnn[nH]2)cc1)[C@H](C(=O)O)C(C)C | 0.77 | 0.941
49 | O=C1c2cccc(O)c2C(=O)c2c(O)cccc21 | 0.742 and 0.482 | 1.16 and 1.05
50 | O=C1C[C@@H](c2ccc(O)c(O)c2)Oc2c1ccc(O[C@@H]1O[C@H](CO)[C@@H](O)[C@H](O)[C@H]1O)c2O | 0.937 | 0.969
51 | CN1c2ccccc2C(=O)N2CCc3c([nH]c4ccccc34)C21 (stereo in doubt) | 0.589 | 0.628
52 | CCOC(N)=O | 0.792 | 0.963
53 | O=c1cc(N2CCOCC2)oc2c(-c3ccccc3)cccc12 | 0.513 | 0.532
54 | N[C@H](C(=O)O)c1ccc(C(=O)O)c(O)c1 | 1.02 | 0.946
55 | O=C(O)c1cc(=O)c2ccccc2[nH]1 | 1.08 | 0.931
56 | Cc1cnc(NC(=O)Nc2cc(Br)c(C)cc2OC[C@@H]2CNCCO2)cn1 | 0.814 | 0.739
57 | CCCCCCCCCCCC[C@@H](C(=O)O)[C@H](C)C(=O)O | 1.06 | 1.05
58 | CCNC(=O)Nc1ccc(-c2nc3c(c(N4CCOC[C@@H]4C)n2)CCN(c2ncccn2)C3)cc1 | 0.196 | 0.242
59 | CSCC[C@H](NC(=O)[C@H](Cc1c[nH]c2ccccc12)NC(=O)CCNC(=O)OC(C)(C)C)C(=O)N[C@@H](CC(=O)O)C(=O)N[C@@H](Cc1ccccc1)C(N)=O | 0.98 | 0.915
60 | Cc1ccc(Sc2cncc3sc(C(N)=O)cc23)cc1 | 1.08 | 1.19
61 | CC(C)NNC(=O)c1ccncc1 | 0.629 and 0.387 | 0.999 and 0.656
62 | Cc1c(C(=O)Nc2ccc(N3C[C@@H](C)O[C@@H](C)C3)nc2)cccc1-c1ccc(OC(F)(F)F)cc1 | 0.915 and 0.802 and 0.772 | 0.898 and 0.872 and 0.857
63 | CN(c1ncccc1CNc1nc(Nc2ccc3c(c2)CC(=O)N3)ncc1C(F)(F)F)S(C)(=O)=O | 0.707 and 0.553 | 0.53 and 0.531

Row | Structure (SMILES) | PER2::LUC luminescence (time after treatment 24 h) | PER2::LUC luminescence (time after treatment 30 h)
64 | CC1(COc2ccc(CC3SC(=O)NC3=O)cc2)CCCCC1 (centres undefined) | 1.26 | 1.31
65 | CN(C)CCc1c[nH]c2ccc(CS(=O)(=O)N3CCCC3)cc12 | 0.796 and 1.17 | 0.899 and 1.08
66 | Cn1nc(C(C)(C)C)cc1C(=O)N[C@@H](Cc1cccc(Cl)c1)C(=O)NCC#N | 1.12 | 1.09
67 | O=C(Nc1ccccc1)N1CCN(c2nc(-c3ccccc3)ns2)CC1 | 0.965 | 1.15
68 | Clc1cccc(CN=C2Nc3ccccc3NC23CCNCC3)c1 | 0.739 | 0.742
69 | FC(F)(F)COB(OCC(F)(F)F)OCC(F)(F)F | 0.958 | 1
70 | CCN1CCCC1CNC(=O)c1cc(S(N)(=O)=O)ccc1OC (single isomer, unassigned; (-)) | 0.865 | 0.962
71 | O=C(O)CCC(=O)c1ccc(-c2ccccc2)cc1 | 0.819 | 1.19
72 | C[C@H]1[C@H](C)CC[C@]2(C(=O)O)CC[C@]3(C)C(=CC[C@@H]4[C@@]5(C)C[C@@H](O)[C@H](O)[C@@](C)(CO)[C@@H]5[C@H](O)C[C@]43C)[C@H]12 | 0.951 | 1.02
73 | COc1ccc(-c2coc3cc(O)ccc3c2=O)c(OC)c1 | 1.02 | 1.05
74 | CC(=O)N(C/C=C(\C)CCC=C(C)C)[C@@H](CS)C(=O)O | 1.05 | 1.03
75 | N[C@@H](Cc1ccc(O)c(O)c1)C(=O)O | 0.929 and 0.725 | 0.802 and 0.885
76 | CCCCc1ncc(/C=C(\Cc2cccs2)C(=O)O)n1Cc1ccc(C(=O)O)cc1 | 0.981 | 1.08
77 | CCC(C)C(NC)C(=O)O (centres undefined) | 0.911 | 1.2
78 | CN1CCCN(C(=O)c2cccc(-c3ccc(/C=C4/C(=O)Nc5ccc(Cl)cc54)o3)c2)CC1 | 0.948 | 0.707
79 | CCCCCCCCOc1ccccc1C(=O)Nc1ccc(C(=O)OCC[N+](C)(CC)CC)cc1 | 1.11 | 1
80 | CN1CCN2c3ccccc3Cc3ccccc3C2C1 (centres undefined) | 0.699 | 0.809
81 | Cc1nc2sccn2c(=O)c1CCN1CCC(=C(c2ccc(F)cc2)c2ccc(F)cc2)CC1 | 0.909 | 0.823
82 | CO[C@H]1C[C@H](O[C@@H]2/C(C)=C/C[C@@H]3C[C@@H](C[C@]4(CC[C@H](C)[C@@H](C5CCCCC5)O4)O3)OC(=O)[C@@H]3C=C(C)/C(=N/O)[C@H]4OC/C(=C\C=C\[C@@H]2C)[C@]43O)O[C@@H](C)[C@@H]1O | 0.454 | 0.892
